# Measured values as given in PMC12040169 (PLOS Biology, 2025).
# This is one part of the list.
# Tested on: T1, C. trachomatis L2/434/Bu expressing GFP (CTL2-GFP)
# T1 construct: L2/434/Bu GFP intracellular growth in HeLa cells
# Parameters: species or system HeLa; C. trachomatis total inclusion area by high-content imaging, normalised to DMSO
# Settings: total inclusion area; 28.5 h, 10 µM; inhibitor
# Outline: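 Host cell viability was gauged from Hoechst-stained nuclei counts, while chlamydial growth was taken from total inclusion area and inclusion number per well. Cells were fixed and imaged by high-content microscopy once bulk GFP and resorufin fluorescence had been measured.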
row,Compound,% of control remaining
1,Cc1ccsc1CN1CCOCC1 [CBK026429],112.219
2,CCOc1cccc(-c2ccc(Nc3ccc(Oc4ccccc4)cc3)nc2)c1 [CBK037679],74.2508
3,CCN(Cc1cnn(C)c1)[C@H]1CCO[C@@H](c2ccccc2-c2ccc(OC)cc2)C1 [CBK285854],98.9184
4,O=C(NCCc1c[nH]c2ccc(Cl)cc12)c1c(F)ccc(Cl)c1F [CBK159756],4.619
5,CC1(C)CCCN1C1=NC(=O)C(c2ccccc2)O1 (centres unmarked) [CBK023070],109.056
6,CSc1nnnn1-c1cccc(NC(=O)N2CCCN(C)CC2)c1 [CBK304180],101.31
7,CC1CC(C)CN(CCCNC(=O)c2cc(C(C)C)nn2C)C1 (centres unmarked) [CBK282665],102.079
8,Cc1noc(C)c1CN1CCC(Oc2ccccc2)CC1 [CBK305811],50.7764
9,CC(C)(C)OC(=O)N1CCN(Cc2ccn(Cc3ccc(S(C)(=O)=O)cc3)c2)CC1 [CBK144936],69.0433
10,CC1CCN(C(=O)COC(=O)c2cnc(-c3ccncc3)s2)CC1 [CBK306255],96.2372
11,O=C(COc1cccnc1)N1CCc2ccccc21 [CBK200268],93.6358
12,CCN(Cc1ccncc1)S(=O)(=O)c1ccc(Cl)c(Cl)c1 [CBK043818],83.846
13,CS(=O)(=O)c1ccc(C(=O)Nc2nc(-c3ccccc3)cs2)cc1 [CBK287716],48.5433
14,NC(=O)c1ccc(-c2ccc(/C=C3/C(=O)NN(c4ccc(F)cc4)C3=O)o2)cc1 [CBK098345],97.7885
15,COC(=O)[C@H]1CN(C(=O)c2cscn2)C[C@@H]1c1ccc(F)cc1 [CBK283785],103.67
16,Cc1cccc(Cl)c1S(=O)(=O)c1ccc2ccnc(N3CCNCC3)c2c1 [CBK036394C],80.0828
17,COc1ccc(C(C)C)cc1-c1cncc(NCC(C)(C)CO)n1 [CBK065206],104.291
18,CS(=O)(=O)c1ccc(CN2CC[C@H](c3nc4ncccc4[nH]3)C2)cc1 [CBK289385],107.447
19,Cn1cc(NC(=O)CCn2c(C(F)(F)F)cc3cccnc32)cn1 [CBK284866],75.5784
20,CC(C)Cn1cnc(S(=O)(=O)N2CCC(Cc3ccccc3)CC2)c1 [CBK306273],39.1494
21,CC1CCc2c(sc(Nc3nc4c(F)cccc4s3)c2C(N)=O)C1 (centres unmarked) [CBK287477],56.6996
22,Cc1ccc(-c2ccc(/C=N\NC(=O)C3C(=O)NCC3c3ccccc3)o2)cc1Cl (centres unmarked) [CBK262808],90.2265
23,Cc1[nH]c2ccccc2c1C(=O)CSc1nnc(N)s1 [CBK266328],123.736
24,OCCNc1nccnc1-c1ccc2c(c1)OCO2 [CBK088984],101.374
25,Cc1nn(-c2ccccc2)c2sc(C(=O)N3CCN(C(=O)c4ccccc4)CC3)cc12 [CBK297554],97.0834
26,CCSc1ccc(-c2cc(N(C)c3cccc(C)c3)n3nccc3n2)cc1 [CBK037115],92.3507
27,CNS(=O)(=O)c1ccc(NC(=O)Nc2ccc([N+](=O)[O-])cc2OC)cc1 [CBK266939],105.577

row,Compound,% of control remaining
1,COc1ccc(C(=O)Nc2nc(-c3ccc4c(c3)OCCO4)cs2)cc1OC [CBK287588],103.12
2,COC(=O)/C=C/c1cn(C2CC(O)C(CO)O2)c(=O)[nH]c1=O (centres unmarked) [CBK201244],156.009
3,CN(C)CCN(C)c1nc(-c2ccccc2F)cn2ccnc12 [CBK037406],63.7653
4,O=C(O)c1ccc(NCc2ccccc2OCc2ccc(F)cc2)cc1 [CBK266487],131.182
5,Cc1c(NC(=O)CSc2nnc(-c3cccc([N+](=O)[O-])c3)n2C)c(=O)n(-c2ccccc2)n1C [CBK266757],112.456
6,O=C(O)CCCN1C(=O)c2ccccc2C1=O [CBK056635],67.7233
7,CN(C)C(=O)c1ccc(Cn2ccnc(N3CCC(Sc4ccccc4)CC3)c2=O)cc1 [CBK153651],107.693
8,Cc1cc2c(o1)CCc1sc(N(C)C(=O)C3CCCO3)nc1-2 (centres unmarked) [CBK281932],102.149
9,Cn1c(=O)n(C)c2cc(CNC3(c4ccccc4)CC3)ccc21 [CBK282746],109.253
10,CN1CCN(CCCNC(=O)N2CCN(c3cc(C(F)(F)F)ccn3)CC2)CC1 [CBK156431],83.3656
11,COc1ccc(S(=O)(=O)N(C)CC(=O)O)c2ccccc12 [CBK268459],75.0682
12,CCn1c(C2CC(=O)N(c3ccc(C)cc3C)C2)nc2ccccc21 (centres unmarked) [CBK287505],99.6819
13,Cc1cc(OC(C)C(=O)Nn2cnnc2)ccc1Cl (centres unmarked) [CBK269690],93.2438
14,O=C(NC(c1ccc(Cl)cc1)c1ccsc1)C1CCN(CCOc2ccccc2)CC1 (centres unmarked) [CBK147951],105.047
15,CS(=O)(=O)Nc1ccc(-c2ccc3c(c2)CCO3)c2ccccc12 [CBK083753],29.4164
16,Cn1nc2n(c1=O)CC(C(=O)NCCN1CCCc3ccccc31)CC2 (centres unmarked) [CBK307206],36.63
17,COc1ccc(CC(=O)NCC(c2cccs2)N2CCOCC2)cc1F (centres unmarked) [CBK305618],44.3309
18,CN(C)c1ccc(/C=C(\C#N)c2nn(-c3ccccc3)c(N)c2C#N)cc1[N+](=O)[O-] [CBK262532],101.725
19,CCOC(=O)CN(Cc1ccccc1)S(=O)(=O)c1ccc(C(C)C)cc1 [CBK043404],88.9464
20,O=C1NC(=O)C2(CCN(C(=O)c3csc4c3CCCC4)CC2)N1 [CBK305601],53.0361
21,Cc1cccc(C)c1NC(=O)C(C)Sc1nc2ccccc2c(=O)n1CC1CCCO1 (centres unmarked) [CBK068151],98.8654
22,COc1ccccc1N1CCN(CC(CC(=O)Nc2ccccc2)C(=O)O)CC1 (centres unmarked) [CBK286766],111.853
23,O=C(CN1CCCC1)Nc1sc2c(c1C(=O)Nc1ccccc1)CCCC2 [CBK268800],70.7924
24,CCN1CCC(CNS(=O)(=O)c2ccc(N3CCCC3=O)cc2)CC1 [CBK305663],101.221
25,COCCn1c(SC(C)C(=O)N2CCOCC2)nc2cc(Cl)ccc21 (centres unmarked) [CBK305580],31.6759
26,CN(C)c1cccc2c(S(=O)(=O)n3c(=O)n(Cc4ccc(S(C)(=O)=O)cc4)c4ccccc43)cccc12 [CBK106535],98.9891
27,CC1(C)CC(=O)C(C(=S)Nc2ccccc2)=C(NCc2ccccc2)C1 [CBK264498],118.023

row,Compound,% of control remaining
1,Nc1cccc(-c2cncc(N(CCO)CCO)n2)c1 [CBK065808],123.197
2,Cc1nc(C2CCN(C(=O)c3ccncc3)CC2)c2sccn12 [CBK282235],97.0415
3,OCCN1CC2(CCN(Cc3c(F)cccc3F)CC2)c2ccccc21 [CBK137010],103.589
4,OC(COCc1ccccc1)CN1CCN(c2ccccc2F)CC1 (centres unmarked) [CBK074851C],96.348
5,Nc1ccc2ccc(-c3cccc(C(F)(F)F)c3)nc2n1 [CBK067629],110.032
6,Cc1cccc(Cn2cnc(NC(=O)Nc3cccc(Cl)c3C)n2)c1 [CBK266876],109.348
7,CCNc1cc(-c2ccc(N3CCOCC3)cc2)ncn1 [CBK090876],97.5078
8,COc1ccc(C(=O)Nc2ccccc2-c2nc3ccccc3s2)cc1OC [CBK266376],139.341
9,Clc1cncc(-c2ccccc2)n1 [CBK113371],70.1342
10,CCS(=O)(=O)N1CCc2cc(C(=O)CSc3nnc(-c4ccco4)o3)ccc21 [CBK297126],70.7307
11,CS(=O)(=O)Nc1cccc(-c2cnc3[nH]c(=O)n(Cc4cccs4)c3n2)c1 [CBK064708],104.123
12,CCOc1cc(NC2CCN(C(=O)Cc3cc(C)on3)CC2)ncn1 [CBK304689],17.4781
13,Nc1ncc(-c2ccccc2)nc1-c1ccc(O)cc1 [CBK064030],103.705
14,Cn1cc(CNC(=O)Nc2cccc(CN3CCCCC3=O)c2)cn1 [CBK305062],59.4001
15,CC(C)(C)OC(=O)N1CCN(Cc2nnc(Cc3ccccc3)o2)CC1 [CBK306223],94.8433
16,CC(=O)Nc1ccc(-c2csc(Nc3ccc(S(=O)(=O)Nc4nc(C)cc(C)n4)cc3)n2)cc1 [CBK267295],86.7966
17,N#Cc1ccc(CNC(=O)N2CCN(Cc3ccccc3)CC2)cc1 [CBK155637],98.1554
18,COc1ccc(Cl)cc1NS(=O)(=O)N(C)C [CBK025794],76.1476
19,CCCSc1ccc2[nH]c(NC(=O)CSc3nc[nH]n3)nc2c1 [CBK270181],13.6568
20,Cc1ccc(C2(O)CCN(CCNC(=O)C3CCCC3)CC2)cc1 [CBK282606],115.768
21,Cc1nc(NS(=O)(=O)Cc2ccccc2)sc1C(=O)O [CBK045552],93.1779
22,O=C(O)c1cccc(-n2c(S)nnc2-c2ccncc2)c1 [CBK269260],97.2929
23,Nc1nc(OCc2ccccc2)cnc1-c1cccc(C(F)(F)F)c1 [CBK145179],105.264
24,COc1ccccc1N1CCN(CC2CN(c3ccccc3)c3ccccc3O2)CC1 (centres unmarked) [CBK066872C],65.9959
25,CCOc1ccccc1C(=O)Nc1cnc(-c2cccc(C)c2)c(-c2ccc(N)cc2)n1 [CBK036783],133.707
26,Cc1ccc2nc(-c3ccc4c(c3)CCN4S(C)(=O)=O)cn2c1 [CBK285185],109.38
